The chains are these.
B1: PhoQ; a variant is named by its letters at X, in order, P23837 (parent)
chain: MKKLLRLFFPLSLRVRFLLATAAVVLVLSLAYGMVALIGYSVSFDKTTFRLLRGESNLFYTLAKWENNKLHVELPENIDKQSPTMTLIYDENGQLLWAQRDVPWLMKMIQPDWLKSNGFHEIEADVNDTSLLLSGDHSIQQQLQEVREDDDDAEMTHSVAVNVYPATSRMPKLTIVVVDTIPVELKSSYMVWSWFIYVLSANLLLVIPLLWVAAWWSLRPIEALAKEVRELEEHNRELLNPATTRELTSLVRNLNRLLKSERERYDKYRTTLTDLTHSLKTPLXXLQXXLRSLRSEKMSVSDAEPVMLEQISRISQQIGYYLHRASMRGGTLLSRELHPVAPLLDNLTSALNKVYQRKGVNISLDISPEISFVGEQNDFVEVMGNVLDNACKYCLEFVEISARQTDEHLYIVVEDDGPGIPLSKREVIFDRGQRVDTLRPGQGVGLAVAREITEQYEGKIVAGESMLGGARMEVIFGRQHSAPKDE

This is one part of the list. Where only a bound is given, the exact number is not on record here.

Variants of B1 are the subject of the experiment. The experiment is described as follows: enrichment ratio after two sorts for PhoP signalling (ratio (wild type AVST 3.29)); higher = more functional. As to conditions: with PhoP (E. coli).
With QCQG, the enrichment ratio was not above 0.25.
Turning to TLSQ, the enrichment ratio was 9.34.
Take FYEH: the enrichment ratio is not above 0.25.
As to IGAH, the enrichment ratio is not above 0.25.
In the case of IMCM it was not above 0.25; in that of ANRG, not above 0.25; in that of HRGR, not above 0.25.
Consider YITI, for which the enrichment ratio is not above 0.25.
In the case of HSSR, the enrichment ratio is not above 0.25.
For the variant HTWN, the enrichment ratio was not above 0.25.
In the case of WQFN, the enrichment ratio was not above 0.25.
Consider EPYY, for which the enrichment ratio was not above 0.25.
As for TETH, the enrichment ratio is 10.3.
In the case of NNSW, the enrichment ratio is not above 0.25.
Regarding HGFK, the enrichment ratio is not above 0.25.
For the variant DDSE, the enrichment ratio was found to be 1.96.
In the case of SVGY, the enrichment ratio amounted to 4.82.
Take KVGT: the enrichment ratio was not above 0.25.
For the variant QFNL, the enrichment ratio is not above 0.25.
As for NSED, the figure is not above 0.25; as for MWFI, not above 0.25; as for MGND, not above 0.25.
In the case of WEGV it was not above 0.25; in that of ISLK, not above 0.25.
GDIQ: the enrichment ratio was found to be 17.5.
Regarding LFEW, the enrichment ratio was not above 0.25.
Take NYIR: the enrichment ratio is not above 0.25.
Regarding EIEP, the enrichment ratio is not above 0.25.
As for VCHN, the figure is not above 0.25; as for FCGS, not above 0.25.
Take HLYF: the enrichment ratio is not above 0.25.
As for GVCI, the enrichment ratio was not above 0.25.
For the variant WVYK, the enrichment ratio was not above 0.25.
For SCPW, the enrichment ratio is not above 0.25.
As to YLCQ, the enrichment ratio stood at 0.342.
With WPSC, the enrichment ratio is not above 0.25.
As for RVGY, the figure is not above 0.25; as for IECK, not above 0.25; as for TYCD, not above 0.25.
As for GNQL, the figure is not above 0.25; as for LEYG, 4.21.
As to KLSK, the enrichment ratio is not above 0.25.
As to NFGL, the enrichment ratio is not above 0.25.
For the variant NNGV, the enrichment ratio is not above 0.25.
As to IPQG, the enrichment ratio is not above 0.25.
Turning to WWWP, the enrichment ratio was not above 0.25.
In the case of NFSN it was not above 0.25.
In the case of WPGL, the enrichment ratio was not above 0.25.
For AMVP, the enrichment ratio was 0.854.
Turning to YEFH, the enrichment ratio was not above 0.25.
In the case of TYDY it was not above 0.25; in that of KTQK, not above 0.25.
Take CLFG: the enrichment ratio was not above 0.25.
As for VWPD, the enrichment ratio was not above 0.25.
Take PQGY: the enrichment ratio is not above 0.25.
Regarding ATDL, the enrichment ratio is 1.31.
Regarding LVWA, the enrichment ratio is not above 0.25.
As to RQIH, the enrichment ratio is not above 0.25.
Turning to RLIK, the enrichment ratio was not above 0.25.
WYSG: the enrichment ratio is not above 0.25.
Consider TDIE, for which the enrichment ratio was not above 0.25.
In the case of KRGT it was not above 0.25.
As for GRSF, the figure is not above 0.25; as for HMLN, not above 0.25; as for KYDP, not above 0.25.
Regarding MFCY, the enrichment ratio is not above 0.25.
For the variant IMDF, the enrichment ratio is not above 0.25.
Take QMVT: the enrichment ratio is not above 0.25.
On to KCNV, for which the enrichment ratio was not above 0.25.
As to QAIY, the enrichment ratio is not above 0.25.
For WAWL, the enrichment ratio was not above 0.25.
Turning to DHHS, the enrichment ratio is not above 0.25.
Turning to LTEM, the enrichment ratio is not above 0.25.
Regarding WFWC, the enrichment ratio is not above 0.25.
On to ECGW, for which the enrichment ratio is not above 0.25.
On to RTPS, for which the enrichment ratio turned out to be 0.958.
As for LHSK, the figure is not above 0.25; as for WQHW, not above 0.25.
As for AGYV, the enrichment ratio is not above 0.25.
On to YHIL, for which the enrichment ratio is not above 0.25.
DPCM: the enrichment ratio was not above 0.25.
With HTWH, the enrichment ratio is not above 0.25.
As to RLMN, the enrichment ratio is not above 0.25.
HMAR: the enrichment ratio was not above 0.25.
As for SKGE, the figure is not above 0.25.
On to TFQP, for which the enrichment ratio is not above 0.25.
On to PQIM, for which the enrichment ratio was not above 0.25.
Consider ISRR, for which the enrichment ratio is not above 0.25.
As to LLVE, the enrichment ratio is not above 0.25.
HCTW: the enrichment ratio was not above 0.25.
As to QFHP, the enrichment ratio is not above 0.25.
As to VAKN, the enrichment ratio was not above 0.25.
For VFAH, the enrichment ratio was not above 0.25.
In the case of HSKW, the enrichment ratio is not above 0.25.
In the case of RMTV it was not above 0.25; in that of PVVQ, not above 0.25.
As to YQMI, the enrichment ratio was not above 0.25.
Regarding MGFI, the enrichment ratio worked out at 7.16.
As to YIFC, the enrichment ratio is not above 0.25.
With NRRC, the enrichment ratio is not above 0.25.
Regarding FHCE, the enrichment ratio is not above 0.25.
For the variant KMHI, the enrichment ratio was found to be 3.39.
For VMSN, the enrichment ratio is not above 0.25.
On to LTFP, for which the enrichment ratio is not above 0.25.
In the case of QRKT, the enrichment ratio is not above 0.25.
As for PDLM, the figure is not above 0.25.
LDMF: the enrichment ratio was not above 0.25.
In the case of YLHR it was not above 0.25; in that of LHRW, not above 0.25; in that of KYHK, not above 0.25.
In the case of PGKD, the enrichment ratio is not above 0.25.
For the variant VIGM, the enrichment ratio was not above 0.25.
Regarding NDFG, the enrichment ratio is not above 0.25.
As for EVPW, the enrichment ratio is not above 0.25.
VRGR: the enrichment ratio is not above 0.25.
Turning to YSQF, the enrichment ratio was not above 0.25.
On to EATN, for which the enrichment ratio was not above 0.25.
Consider YWVK, for which the enrichment ratio was not above 0.25.
For QNSF, the enrichment ratio is not above 0.25.
SWQG: the enrichment ratio is not above 0.25.
As for QSVT, the figure is not above 0.25; as for WRFN, not above 0.25; as for THVM, 9.68.
Turning to INQM, the enrichment ratio was not above 0.25.
In the case of SVIQ it was 0.663; in that of IRKP, not above 0.25.
With SHPH, the enrichment ratio was not above 0.25.
On to LRTR, for which the enrichment ratio is not above 0.25.
In the case of MWAL it was not above 0.25.
As for RIDC, the figure is not above 0.25; as for RTLE, not above 0.25; as for RRAQ, not above 0.25.
As to WSWD, the enrichment ratio is not above 0.25.
Regarding AGES, the enrichment ratio was not above 0.25.
Regarding EATH, the enrichment ratio was not above 0.25.
In the case of YASE, the enrichment ratio was not above 0.25.
In the case of LKIW, the enrichment ratio was not above 0.25.
On to GTQP, for which the enrichment ratio is not above 0.25.
As for MDRI, the enrichment ratio is not above 0.25.
Turning to YHYT, the enrichment ratio is not above 0.25.
For TKQW, the enrichment ratio was not above 0.25.
As to LCGV, the enrichment ratio is not above 0.25.
Turning to MYIS, the enrichment ratio is not above 0.25.
Regarding IKCF, the enrichment ratio was not above 0.25.
Regarding LKQG, the enrichment ratio was not above 0.25.
As for TCHW, the figure is not above 0.25; as for LHDW, 1.04.
Regarding DILA, the enrichment ratio is not above 0.25.
For YDEM, the enrichment ratio is not above 0.25.
As to SPHF, the enrichment ratio was not above 0.25.
Regarding APEP, the enrichment ratio is not above 0.25.
As for MTCW, the figure is not above 0.25.
With NNVM, the enrichment ratio is not above 0.25.
